Laboratory results reported in PubChem BioAssay AID1508642 (National Center for Advancing Translational Sciences (NCATS), 2021).
The campaign covered roughly 43,000 compounds. About 200 (0.47%) were called active. About 12% were inconclusive and are not listed. Calls come from the whole dose curve; as a rule, active = well fitted cell-killing curve with a large enough effect; inconclusive = small, poorly fitted or top-dose-only effect, or effect the other way; inactive = flat fitted curve, though single readings scatter. Some of the results follow.

Assay: Cell viability qHTS assay in S16 Pmp22-F2sN cells; note: nearly all actives have a fitted effect of over 65% in size
Conditions: S16 Pmp22-F2sN Schwann cells (luciferase reporters placed in the Pmp22 gene) viability, CellTiter-Glo, 24 h; series mostly up to 57.5 µM; activity change, negative = cytotoxicity: at the top concentration
How it was run: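 CellTiter-Glo counter-screen, qHTS, 1536-well. Cells: S16(c9) Pmp22-F2sN, 500-1,000/well in DMEM + 10% FBS. Cpd 23 nL pin transfer, 24 h, 37C/5% CO2. Read: luminescence, CCD imager.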
% is set by controls: 0 for no effect and ±100 for the full control effect; potency is the fitted concentration of half-maximal effect.

| SMILES | activity change, negative = cytotoxicity | Potency |
| --- | --- | --- |
| CCCn1cc(S(=O)(=O)c2ccc(CC)cc2)c(=O)c2ccccc21 | inactive: -1.83% |  |
| Cc1ccc2occ(-c3cc(-c4ccc(Cl)cc4)nc4c3COc3ccccc3-4)c(=O)c2c1 | inactive: 17.5% |  |
| Cc1ccc(N(C)C(=O)C2CCCN(c3ncnc4c3nc3n4CCCCC3)C2)cc1C (configuration not stated) | inactive: -26.8% |  |
| CCCCc1nn2c(=O)cc(COC(=O)c3ccc(NC(=O)C4CCCCC4)cc3)nc2s1 | inactive: 11.6% |  |
| CCOc1ccc(NC(=O)Cn2c(=O)n(CCC(=O)NCCc3ccccc3)c(=O)c3ccccc32)cc1 | inactive: 13.3% |  |
| CCc1nn2c(=O)cc(COC(=O)C(c3ccccc3)c3ccccc3)nc2s1 | inactive: 26.8% |  |
| CCOC(=O)c1ccc(Nc2cc(-c3ccccc3)nc(C)n2)cc1 | inactive: 3.67% |  |
| COc1ccc(-n2nc(C(=O)NCCc3cccc(C)c3)c3c4ccccc4n(C)c3c2=O)cc1Cl | inactive: 0.772% |  |
| Cc1cc(C)cc(N(CC(=O)NCc2ccccc2Cl)S(=O)(=O)c2c(C)noc2C)c1 | inactive: 1.39% |  |
| COC(=O)CC1Oc2ccccc2-n2cc(-c3ccc(Cl)cc3)nc21 (configuration not stated) | inactive: 24.1% |  |
| Cc1ccccc1C(=O)Nc1nnc(S(=O)(=O)N2CCCCCC2)s1 | inactive: 4.99% |  |
| COc1ccc(CNC(=O)Cc2csc3nc(-c4ccc(C)cc4)cn23)cc1 | inactive: 17.2% |  |
| O=C(COc1ccccc1)Nc1ccccc1C(=O)OCc1cc(=O)n2nc(C3CC3)sc2n1 | inactive: 3.02% |  |
| CCOC(=O)Cn1c(=O)n(-c2ccccc2OC)c2nc(-c3ccccc3C)nc(C(N)=O)c21 | inactive: 17.7% |  |
| O=C(NCCc1ccccc1)C(=O)Nc1cccc(Br)c1 | inactive: -5.23% |  |
| Oc1c(C(c2ccccc2)N2CCN(c3ccccc3)CC2)sc2nc(-c3ccco3)nn12 (configuration not stated) | inactive: -1.73% |  |
| Cn1c(CCNC(=O)c2ccco2)nc2cc(NC(=O)COc3ccc(Cl)cc3)ccc21 | inactive: 2.18% |  |
| O=C(CSc1nc(=O)[nH]c2c1CCC2)NCc1ccccc1 | inactive: 28.8% |  |
| Cc1ccc(OCC(=O)Nc2ccc(C(=O)OCc3cc(=O)n4c(C)csc4n3)cc2)cc1 | inactive: -10.8% |  |
| O=C(NCC12CC3CC(CC(C3)C1)C2)c1cc2nc(-c3ccc(F)cc3)cc(C(F)(F)F)n2n1 | inactive: 8.69% |  |
| O=C(Nc1ccc(F)cc1F)c1ccc(-n2cnnc2)cc1 | inactive: -7.67% |  |

| SMILES | activity change, negative = cytotoxicity | Potency |
| --- | --- | --- |
| CCc1ccc(C2c3c(oc4ccc(C)cc4c3=O)C(=O)N2c2nc(C)c(C)s2)cc1 (configuration not stated) | inactive: -1.96% |  |
| COc1cc(NC(=O)Cn2cc(S(=O)(=O)c3ccccc3)c(=O)c3ccccc32)cc(OC)c1 | inactive: -0.842% |  |
| COc1cccc(-c2ccc3c(N)c(C(=O)Nc4ccc(C)c(F)c4)sc3n2)c1 | inactive: -0.792% |  |
| COc1ccc(-c2cc(C(F)(F)F)nc(SCCC(=O)Nc3c(C)cccc3C)n2)cc1 | inactive: -5.54% |  |
| CCc1ccccc1NC(=O)Cc1c(C(=O)O)[nH]c2ccc(Cl)cc12 | inactive: 14.6% |  |
| Cc1ccc(Cn2c(CNC(=O)c3ccccc3Br)nc3cccnc32)cc1 | inactive: 2.55% |  |
| COc1ccc(N2CCN(C(=O)Nc3cccc(C(F)(F)F)c3)CC2)cc1 | inactive: -21% |  |
| CC(C)CNC(=O)C1=CC(c2ccc3c(c2)OCO3)=NS(=O)(=O)N1C | inactive: 2.13% |  |
| Cc1ccc(-n2c(=O)c3oc4ccccc4c3n(CC(=O)Nc3ccccc3)c2=O)cc1C | inactive: 4.41% |  |
| Cc1cc(-n2c(C)nc3ccccc3c2=O)ccc1NC(=O)c1cccc([N+](=O)[O-])c1 | inactive: 11.7% |  |
| Cc1cccc(NC(=O)CSc2cc(C)c3ccccc3n2)c1 | inactive: 8.34% |  |
| Cc1ccc(NC(=O)C2CCCN2S(=O)(=O)c2cccc3cccnc23)cc1C (configuration not stated) | inactive: 3.42% |  |
| Cn1ccnc1SCC(=O)Nc1cc(Cl)ccc1Cl | inactive: 17.7% |  |
| CCCCNC(=O)CCc1c(C)nc2c(c(C)nn2-c2ccccc2)c1C | inactive: 16% |  |
| CCN(CC)c1ccc(C2C(C(N)=O)=C(C)Nc3ncnn32)cc1 (configuration not stated) | inactive: 4.04% |  |
| CCC(C(=O)Nc1ccc(C(C)=O)cc1)n1c(C)c2cnn(-c3ccccc3)c(=O)c2c1C (configuration not stated) | inactive: -0.513% |  |
| COc1ccc(NS(=O)(=O)c2ccc3[nH]c4c(c3c2)CCCCCC4)cc1 | inactive: -18.6% |  |
| Cn1c(=O)c2c(nc(SCC(=O)Nc3ccc(F)cc3)n2Cc2ccccc2)n(C)c1=O | inactive: -4.41% |  |
| Fc1ccc(CNc2nc(-c3ccccc3)cc(C(F)(F)F)n2)cc1 | inactive: 2.22% |  |
| O=C(NCCc1ccccc1)c1cc(Sc2ccc(F)cc2F)nc2ccccc12 | inactive: 6.92% |  |
| Cc1ccccc1CN1CCCN(CC(=O)Nc2c(C)cccc2C)S1(=O)=O | inactive: 10.9% |  |

| SMILES | activity change, negative = cytotoxicity | Potency |
| --- | --- | --- |
| COc1cccc(OCc2nc3ccccc3n2CCOc2cccc(C)c2)c1 | inactive: -0.63% |  |
| Cc1cccc(CS(=O)(=O)c2ncc(Cl)c(C(=O)NCc3ccccc3)n2)c1 |  | active: 20 µM |
| Cc1ccccc1CS(=O)(=O)Cc1ccc(C(=O)NCc2ccc(F)cc2)o1 | inactive: -14.6% |  |
| Cc1ccc(C)c(NC(=O)c2cc(=O)c3cc(C)cc(C)c3o2)c1 | inactive: 3.8% |  |
| Cc1ccc(NC(=O)Cn2c(=O)ccc3cc(S(=O)(=O)N4CCC(C)CC4)ccc32)cc1Cl | inactive: 10.5% |  |
| COc1cccc(NC(=O)CCNC(=O)Cn2ccc3ccccc3c2=O)c1 | inactive: -0.555% |  |
| O=C1CC(c2ccc(Cl)cc2)N=C(NC(=O)c2ccccc2)N1 (configuration not stated) | inactive: -1.49% |  |
| COCCNc1ncnc2c1c(-c1ccccc1)cn2-c1cccc(Cl)c1 | inactive: -0.988% |  |
| CCc1ccc(NCc2cc3cc4c(cc3n(CC(=O)Nc3ccc(F)cc3)c2=O)OCCO4)cc1 | inactive: 18% |  |
| Cc1ccc(NC(=O)CSc2nnc(N)s2)c(C)c1 | inactive: 1.23% |  |
| COc1ccc(CNC(=O)C2CCN(S(=O)(=O)c3cccc4nonc34)CC2)cc1OC | inactive: 25.6% |  |
| CC(C)C(=O)OCc1cc(=O)n2nc(C3CCCCC3)sc2n1 | inactive: 23.8% |  |
| O=C(c1cccs1)N1CCCc2cc(NS(=O)(=O)c3ccc(F)cc3)ccc21 | inactive: -1.42% |  |
| COCCCNC(=O)CCc1c(C)nc2cc(-c3ccc(Cl)cc3)nn2c1C | inactive: -7.05% |  |
| O=C(Nc1ccc2nn(-c3ccccc3)nc2c1)c1ccc(-c2cccc(Cl)c2)o1 | inactive: -5.04% |  |
| CCOc1ccc(C(=O)N2CCN(Cc3cc(=O)n4nc(-c5ccccc5Cl)sc4n3)CC2)cc1 | inactive: 22.5% |  |
| O=C(CSc1nnc(CNC(=O)c2c(F)cccc2Cl)o1)Nc1cccc(F)c1 | inactive: 2.77% |  |
| CCOc1ccc(NS(=O)(=O)c2ccc(NC(=O)N3CCCC3)cc2)cc1 | inactive: 3.81% |  |
| O=C(c1ccc2c(=O)n(CCc3ccccc3)c(=O)[nH]c2c1)N1CCN(c2ccc(Cl)cc2)CC1 | inactive: 0.0608% |  |
| CCS(=O)(=O)N1CCc2cc(C(=O)Nc3cc(Cl)ccc3C)ccc21 | inactive: 0.0436% |  |
